According to publication PMC4336329 (PLoS ONE, 2015):
The whole screen tested about 310,000 compounds, of which about 2,200 (0.71%) showed an effect of 50% or more. The effect is printed as a negative number. This is one part of the list.

Each compound was assayed against human ether-à-go-go-related gene (hERG) potassium channel (human, UniProt Q12809) (assay: primary screen, population patch clamp on CHO cells stably expressing hERG).
Sequence of human ether-à-go-go-related gene (hERG) potassium channel (Q12809 whole entry, looked up): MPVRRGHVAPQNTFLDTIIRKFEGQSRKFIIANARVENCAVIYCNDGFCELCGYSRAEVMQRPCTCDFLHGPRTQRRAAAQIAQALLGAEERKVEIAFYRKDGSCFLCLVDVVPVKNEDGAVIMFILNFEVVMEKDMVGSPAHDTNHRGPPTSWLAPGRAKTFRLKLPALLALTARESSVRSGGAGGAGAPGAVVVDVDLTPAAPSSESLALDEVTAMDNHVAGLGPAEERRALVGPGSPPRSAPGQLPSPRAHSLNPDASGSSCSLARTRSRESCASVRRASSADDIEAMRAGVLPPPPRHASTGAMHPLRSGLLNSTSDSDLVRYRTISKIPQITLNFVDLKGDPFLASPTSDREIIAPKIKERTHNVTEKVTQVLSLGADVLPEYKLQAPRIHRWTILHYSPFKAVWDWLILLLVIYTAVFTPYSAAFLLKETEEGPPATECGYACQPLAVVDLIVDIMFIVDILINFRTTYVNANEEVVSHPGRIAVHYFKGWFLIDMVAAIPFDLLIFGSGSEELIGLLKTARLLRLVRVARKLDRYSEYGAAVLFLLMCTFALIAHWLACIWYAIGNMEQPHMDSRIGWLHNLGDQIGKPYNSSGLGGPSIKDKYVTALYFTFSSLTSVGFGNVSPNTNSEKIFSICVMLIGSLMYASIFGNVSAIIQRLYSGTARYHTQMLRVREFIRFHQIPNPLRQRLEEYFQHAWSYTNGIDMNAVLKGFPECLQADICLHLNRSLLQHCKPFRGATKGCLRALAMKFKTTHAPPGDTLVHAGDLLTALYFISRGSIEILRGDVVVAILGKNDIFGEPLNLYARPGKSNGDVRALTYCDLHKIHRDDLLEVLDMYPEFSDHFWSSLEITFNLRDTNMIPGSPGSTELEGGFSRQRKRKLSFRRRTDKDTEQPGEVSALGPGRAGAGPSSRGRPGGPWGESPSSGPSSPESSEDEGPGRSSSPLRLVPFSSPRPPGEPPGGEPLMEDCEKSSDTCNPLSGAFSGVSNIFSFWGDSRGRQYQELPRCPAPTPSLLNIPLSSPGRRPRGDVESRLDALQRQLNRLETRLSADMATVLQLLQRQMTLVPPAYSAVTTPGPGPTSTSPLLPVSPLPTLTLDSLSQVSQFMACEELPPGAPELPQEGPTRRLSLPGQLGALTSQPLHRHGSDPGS

Structure (SMILES)	hERG current change (%, negative = inhibition) at 1uM
Cc1ccc(S(=O)(=O)NNC(=O)c2cnn(-c3ccc(Cl)cc3)c2C(F)(F)F)cc1	4.73%
CC(=O)N1CCCc2cc(S(=O)(=O)NCCC3=CCCCC3)ccc21	4.97%
O=C(NCc1ccccc1Br)c1ccc2c(c1)OCCO2	15.2%
CC(=O)NC1C(OCc2ccccc2)OC(CO)C(OC(C)=O)C1OC(C)=O (stereo not drawn)	2.17%
CCCS(=O)(=O)N1CCC(C(=O)NCCCN2CCCC2=O)CC1	11.3%
O=C(O)/C=C/C(=O)Nc1ccc(O)cc1	12.1%
CC(NS(=O)(=O)c1ccccc1)C1COc2ccccc2O1 (stereo not drawn)	0.411%
Cc1cccc(N=Cc2[nH]c3ccc(Br)c(Cl)c3c2O)c1	21.4%
CC(C)O.CN1CCc2c(c3c(n2C)CCN(C)[C@@H]3c2cccnc2)[C@H]1c1cccnc1.Cl	-2.27%
O=C(NC(=S)NCCN1CCOCC1)c1ccccc1Cl	10%
CC12CCC(C/C1=N/NC(=O)Nc1ccccc1)C2(C)C (stereo not drawn)	5.03%
CCN(CC)C(=O)COc1ccc(-c2nnc(N3CCCCC3)c3ccccc23)cc1	6.64%
Cn1c2ccccc2c2ncn(CCCN3CCOCC3)c(=O)c21	-6.04%
COc1ccccc1C1C(C(N)=O)=C(C)Nc2ncnn21 (stereo not drawn)	-2.68%
CCC(C)(C)NC(=O)C(c1ccc(OC)cc1)N(C(=O)CCC(=O)Nc1cc(C)on1)c1ccc2c(c1)OCCO2 (stereo not drawn)	11.3%
C#CC[N+](C)(C)CC#Cc1ccccc1.[Br-]	14.3%
Cc1ccccc1N1CCN(S(=O)(=O)c2ccccc2)CC1	5.62%
COc1ccc(C(=O)NCCSCc2ccccc2C)cc1	-5.69%
COc1cccc(CNC(=O)CCC2CCCN(C/C=C/c3ccccc3OC)C2)c1 (stereo not drawn)	-34.5%

Structure (SMILES)	hERG current change (%, negative = inhibition) at 1uM
CCCCC(O)(CCCC)C(=O)NN(C(=O)CCl)c1ccccc1	14.9%
Cc1cccc(C)c1NC(=O)C(c1cccc([N+](=O)[O-])c1)N(C)C(=O)c1ccccn1 (stereo not drawn)	-6.29%
O=C(Nc1ccccc1)N1CCn2c1nc1ccccc12	15.6%
COC(=O)N/N=C/c1cn(CCCOc2ccccc2)c2ccccc12	0.62%
O=c1oc2ccc3ccccc3c2cc1-c1nc2ccccc2o1	14%
Cc1ccc(N2C(=O)c3cccc4c([N+](=O)[O-])ccc(c34)C2=O)c2cccnc12	10.2%
O=C(Nc1ccc(N2CCCC2)cc1)c1ccc2ccccc2c1	-2.3%
O=C(c1ccc([N+](=O)[O-])cc1)N1CCN(C(=O)c2cccs2)CC1	-31%
COc1cccc(OC(=O)c2cc3ccccc3oc2=O)c1	3.86%
CCC1CCCCN1S(=O)(=O)c1ccc(NC(=O)CSc2ncccc2C(=O)O)cc1 (stereo not drawn)	2.19%
CCCSc1nnc(NC(=O)Nc2ccc(F)cc2)s1	10.2%
O=[N+]([O-])c1ccc(N2CCCCC2)c2ncccc12	-0.566%
Cc1[nH]c2ccccc2c1NC(=O)CN1CCN(C(=O)c2ccco2)CC1	14.1%
CCOC(=O)C1=NNC(C(=O)c2ccccc2)C1c1ccc(OC)cc1 (stereo not drawn)	15.6%
O=C(Cn1nnc2ccccc2c1=O)Nc1cc(C(F)(F)F)ccc1N1CCOCC1	6.52%
C/C(CC(=O)Nc1ccc(Cl)c(C(F)(F)F)c1)=N\NC(=O)c1cccc(O)c1	-7.3%
COCCOC(=O)C1=C(C)NC(=O)NC1C1CC=CCC1 (stereo not drawn)	7.82%
Cn1c(=O)c2c(-c3ccccc3)n(N3CCOCC3)cc2n(C)c1=O	-19.1%
NC(=O)c1nsc(C(=O)N(Cc2ccco2)C(C(=O)NCc2ccccc2)c2ccc(O)cc2)c1N (stereo not drawn)	4.4%

Structure (SMILES)	hERG current change (%, negative = inhibition) at 1uM
CCCCOc1ccc(NC(=O)CN2CCN(C(=O)OCC)CC2)cc1.Cl	-8.98%
Cn1c(NCc2cccc(Br)c2)nc2ccccc21	-1.85%
O=C(NC1CCCC1)C1CC(=O)N(c2ccc(F)cc2)C1 (stereo not drawn)	17.3%
CC(=O)NC(CC(=O)NC1CCCCC1)c1ccccc1 (stereo not drawn)	2.36%
COCCCNC(=O)c1ccccc1NS(C)(=O)=O	12.4%
Cl.OC1(c2ccccc2)CCN(Cc2ccccc2)C2CCCCC21 (stereo not drawn)	0.966%
Cc1csc(NC(=O)c2ccc(C)c(S(=O)(=O)N3CCCCC3)c2)n1	3.65%
Cc1cc(NNC(=O)c2ccccc2)nc(NNC(=O)c2ccccc2)n1	1.23%
CCN(CC)CCCNC(=S)N(Cc1ccco1)Cc1cc2cc3c(cc2[nH]c1=O)OCCO3	15.4%
COc1ccc(C2=NNC(=Nc3cc(S(=O)(=O)N(C)C)ccc3C)SC2)c(OC)c1	10.4%
O=C(CSc1nc2ccccc2[nH]1)Nc1ccc(F)cc1	6.9%
Cc1nonc1C(=O)N/N=C/c1cccc(O)c1	-3.28%
COc1cc(NC(=O)c2c(Cl)cnn2C)c(OC)cc1Cl	9.91%
COC(=O)C1=C(c2c(C)noc2C)C[C@@H]2CC[C@H]1N2C(=O)NCc1ccco1	15.6%
Cc1cccc(C(=O)OC(C)C(=O)NCC2CCCCC2)c1O (stereo not drawn)	9.4%
CC(C)C(=O)Nc1cc(C(F)(F)F)ccc1-n1ccnc1	7.39%
Cc1[nH]c(-c2ccc(F)cc2)cc1C(=O)N1CCN(c2cccc(Cl)c2)CC1	8.23%
O=C1NN(c2ccccc2)C(=O)/C1=C/c1coc2ccccc2c1=O	12.9%
Cc1ccc(-c2nc3cnccn3c2Nc2ccc3c(c2)OCO3)cc1	12.3%
